167 variants from the RNAGym collection of RNA variant scans (doi:10.1101/gad.245936.114) can be followed below.

Variants at the floor of the assay are shown more often than the library holds them.

The labels stand for the following.
B1: tRNA (parent)
chain: CUCUCGGUAGCCAAGUUGGUUUAAGGCGCAAGACUUUAAUUUAUCACUACGAAAUCUUGAGAUCGGGCGUUCGACUCGCCCCCGGGAGAUUUUUUCCUCGAGCAA

Variants of B1 are the subject of this data set. Kind of data set: nonsense suppression (GFP-seq) (ratio to wild type); higher = more function; SUP4oc tRNA, yeast GFP reporter sort-seq. Summed up:
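Nonsense suppression (GFPSEQ) is the median GFP/RFP ratio of each sorting bin, weighted by the variant's estimated share of cells in that bin and expressed relative to the unmutated parent tRNA. Yeast strains carried genome-integrated variants of an ochre-suppressor tRNA from a library with ~3% random mutations, plus a galactose-driven GFP ochre reporter and RFP, and were grown in raffinose/galactose medium containing 80 mg/L adenine. Cells were sorted into GFP/RFP bins, each bin was Illumina-sequenced (phred ≥30), and variants were kept only with ≥100 reads and ≥30 cells.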
In the case of C5G U57C U70A C80A, the nonsense suppression was at most 0.026.
As to A13G A24C C79G, the nonsense suppression was at most 0.026.
On to U4G C27A C29G A74G, for which the nonsense suppression was at most 0.026.
The result for A9U A33U G78A reads at most 0.026; that for A13G G28U U35C, at most 0.026.
In the case of C27G A31U A60U, the nonsense suppression was at most 0.026.
Regarding G15A G28A C56A U57G A62C G86A A87C, the nonsense suppression was at most 0.026.
For the variant C56U A74U, the nonsense suppression is at most 0.026.
As for C3U C34U, the figure is at most 0.026; as for G7A C34A, at most 0.026; as for C1G U21A G67C U71C C82U, at most 0.026.
The result for U8G G18C A30G G67U reads at most 0.026; that for C3U U22G C27A A60U, at most 0.026; that for G7C U20G G59U, at most 0.026.
As for C3G C11U U17G A30U G65U C72G, the figure is at most 0.026.
Take A30U G32U: the nonsense suppression is at most 0.026.
As for G7U C34G C56G, the nonsense suppression was at most 0.026.
As for C1G G6C G25C G32U A62G U76C C80A, the figure is at most 0.026; as for G7C G65A, at most 0.026.
Turning to C27G U63A, the nonsense suppression was at most 0.026.
Take C5A G7U G86A: the nonsense suppression was at most 0.026.
The result for G26C A30C reads at most 0.026.
The result for C75A C79A reads at most 0.026.
As for U4C A13U U70A G84U, the figure is at most 0.026; as for A31C C64A G69A G85C, at most 0.026; as for C3U A13U A14U U22C A30G U76A, at most 0.026.
On to C1U C3A G7U G25A, for which the nonsense suppression was at most 0.026.
The result for G10C G61C U63A reads at most 0.026; that for G7C U16C C27G, at most 0.026.
The result for G61A G78U reads 0.0402; that for G15C C29U U63C, at most 0.026; that for G7C U35C, at most 0.026.
Regarding U63G G78A, the nonsense suppression came out at 0.0891.
The result for C1A G67C C72A reads at most 0.026.
As for C1G U2C U16C G78A, the figure is at most 0.026; as for C27U U35A U76G, at most 0.026; as for U21G A30G, 0.227.
The result for U21G G69C U71G U76G reads at most 0.026.
Consider C1G C34U, for which the nonsense suppression is at most 0.026.
The result for A60G G69A reads 0.0526; that for G19C U21A C29G, at most 0.026; that for C3U G32A, at most 0.026.
G61A C83G: the nonsense suppression was at most 0.026.
With C5U U8A A9C G10C C12U G25U A31G C80A, the nonsense suppression was at most 0.026.
As to C12G A13C G61A C77G, the nonsense suppression is at most 0.026.
The result for C3A U22C G65C C83U reads at most 0.026; that for U20A C34U, at most 0.026.
The result for A14U A31U G67C reads at most 0.026.
Turning to C12G G15A A30C C83G, the nonsense suppression is at most 0.026.
As to G61A G84C, the nonsense suppression is 0.0752.
The result for U55C G65C reads at most 0.026; that for C27U A31C C72A, at most 0.026; that for C34A U35A, at most 0.026.
With G25A U63C, the nonsense suppression is at most 0.026.
For G7C U17A U55G U63C G88A, the nonsense suppression was at most 0.026.
For the variant G15A U76G, the nonsense suppression was at most 0.026.
As for G6U G66U U70A, the figure is at most 0.026; as for G10C C11U U22C A31C G85C, at most 0.026; as for U2A C77G, at most 0.026.
As for G10U G25U U55A C68A U70G U76A, the figure is at most 0.026; as for C11A U22G C27G G28A, at most 0.026.
On to A9G A60G, for which the nonsense suppression was 0.222.
As for C5U G18C A31G, the nonsense suppression is at most 0.026.
For C1G G18A A31G, the nonsense suppression is at most 0.026.
For C34G C64G, the nonsense suppression was at most 0.026.
As for C27G A74G, the figure is at most 0.026.
Turning to A30C U57G U71C C82A, the nonsense suppression was at most 0.026.
The result for G6C U21G C27A G66U A87C reads at most 0.026; that for C12U G61U G88A, at most 0.026; that for C3U U4A U58C G61A, at most 0.026.
As for C1G U76A, the figure is at most 0.026; as for U16C U58A G59U A62C, at most 0.026; as for U17C G32U G84U, at most 0.026.
The result for G25C A60G reads 0.0619; that for U2A G10U C27A, at most 0.026; that for C34G U71A G78C C79G C80G, at most 0.026.
Regarding A24U C81A, the nonsense suppression is at most 0.026.
As for G67C C72U, the nonsense suppression is at most 0.026.
As for G7A C27U, the nonsense suppression was at most 0.026.
Regarding A33C G78A, the nonsense suppression is at most 0.026.
The result for U17G A23G C34U A74C A89G reads at most 0.026; that for U2C G18A G25C C29G U58G, at most 0.026.
Consider U71G C72U, for which the nonsense suppression was at most 0.026.
As for U17A C27G A54U, the figure is at most 0.026; as for U76A C77U, at most 0.026; as for A9U C12U G84C, at most 0.026.
Turning to C5G U35G U71C, the nonsense suppression is at most 0.026.
In the case of C29G A30C A62C G67U, the nonsense suppression is at most 0.026.
As for U22C C72G, the figure is at most 0.026; as for G18A C27G C79A, at most 0.026; as for U35C G78C, at most 0.026.
The result for U35C G78A reads at most 0.026; that for G32C G67A, at most 0.026.
The result for A24G G61A C72G reads at most 0.026; that for U35A G66U G67U A74U, at most 0.026; that for A14U U17A G18C G73A, at most 0.026.
With U63A G69U U76C G84U, the nonsense suppression is at most 0.026.
Consider C3U C80A, for which the nonsense suppression was at most 0.026.
The result for G6A A30G reads at most 0.026; that for G67C C75U, at most 0.026.
As for A30G C75A G78A, the nonsense suppression is at most 0.026.
As for U2A U4C U16C, the figure is 0.0971; as for A23G G32U, at most 0.026.
On to C72A G86C, for which the nonsense suppression is at most 0.026.
On to U20A A62C, for which the nonsense suppression was at most 0.026.
As for C3U A30U A74C U76A C77A C82G G85A, the figure is at most 0.026; as for U21A C72G, at most 0.026.
The result for C12U U16A A33G G88A reads at most 0.026.
U2G A14G G65C: the nonsense suppression is at most 0.026.
For U17A A62U C75G, the nonsense suppression is at most 0.026.
The result for U2G A13G G26U C56G reads at most 0.026; that for A14G G61C C68A C80G, at most 0.026; that for U17G C27U, at most 0.026.
Consider A23C C56G, for which the nonsense suppression was at most 0.026.
For the variant C56A U76A, the nonsense suppression was at most 0.026.
Consider G6A A13G G18A C56A A62C G67C G73C, for which the nonsense suppression was at most 0.026.
With C1G U8C U55G G69C, the nonsense suppression is at most 0.026.
On to G19U U35G, for which the nonsense suppression is at most 0.026.
Consider U58C G59C G78A, for which the nonsense suppression is at most 0.026.
The result for C5U G19C U35A A89G reads at most 0.026.
Regarding G6A U35A, the nonsense suppression is at most 0.026.
As for G6U U21G G85A G86C, the figure is at most 0.026; as for C5U C11A U21G A87U, at most 0.026; as for C29A A31U C34A G61A U76G, at most 0.026.
As for A74C C83U, the figure is at most 0.026.
The result for U22G G61U G66C reads at most 0.026; that for U17G G67C, at most 0.026; that for G69U U71G, at most 0.026.
Regarding A23G U57C G61A C72G, the nonsense suppression was at most 0.026.
As for A30U U63G, the figure is at most 0.026.
The result for G73A C80G reads at most 0.026; that for C5A G18A, at most 0.026; that for U22C G67U G69U U70G C79A, at most 0.026.
As to G7U A14G U21C C29G C79A, the nonsense suppression was at most 0.026.
On to G6U C81G, for which the nonsense suppression was at most 0.026.
U2A: the nonsense suppression is at most 0.026.
As for U17A A31G C72G U76A G78U, the nonsense suppression was at most 0.026.
As for A30U G88U, the figure is at most 0.026; as for C29A C72A, at most 0.026; as for U57G U76C, at most 0.026.
C27U C72U C79G: the nonsense suppression is at most 0.026.
The result for U35G G78A reads at most 0.026; that for G10U G61C U76G C82U, at most 0.026; that for U4C A24G G67A U70G A89G, at most 0.026.
Take A9G C29G U58C U71C: the nonsense suppression is at most 0.026.
For U16A A54G C77U, the nonsense suppression was at most 0.026.
For A24U G25A G67C, the nonsense suppression is at most 0.026.
Consider C34G C72A, for which the nonsense suppression was at most 0.026.
Regarding C11U G19U A23U C83U, the nonsense suppression is at most 0.026.
Consider A14G U20C C77G, for which the nonsense suppression was at most 0.026.
The result for C3G G19A C64A reads at most 0.026; that for C83A A87C, at most 0.026.
As to A24G G66C, the nonsense suppression is at most 0.026.
For the variant C12G A33U U55C A62U C72A G73A U76C, the nonsense suppression was at most 0.026.
As to A30C U57A A60G C68A A89U, the nonsense suppression is at most 0.026.
As for U17G U55C U71C, the figure is at most 0.026; as for C12U A33G C56G G65C, at most 0.026.
Consider C34U C77A C82A, for which the nonsense suppression is at most 0.026.
The result for G25A G65A C83G reads at most 0.026.
As for G10A U58G G85A G86A, the figure is at most 0.026.
C11G C27G A62C: the nonsense suppression was at most 0.026.
For the variant A13U U76C G84U G86C, the nonsense suppression is at most 0.026.
As for A13C C27G C72A, the figure is at most 0.026; as for C3G C5U G65C, at most 0.026; as for C68G G69A, at most 0.026.
Regarding U2A U20A G69U U71G G88C, the nonsense suppression was at most 0.026.
The result for C56G G65A reads at most 0.026.
